Molecular target: KEAP1 Kelch (kelch-like ECH-associated protein 1, Kelch domain) (human) (UniProt Q14145)
Test: fluorescence polarisation; competition: unlabelled peptide in serial dilution against the protein domain (master mix at four times the KD) with its FITC-labelled probe peptide; 50 mM KPO4 or NaPO4 pH 7.5; Ki calculated from IC50

Sequence of UniProt Q14145 (Q14145 whole entry, the tested form may be a part): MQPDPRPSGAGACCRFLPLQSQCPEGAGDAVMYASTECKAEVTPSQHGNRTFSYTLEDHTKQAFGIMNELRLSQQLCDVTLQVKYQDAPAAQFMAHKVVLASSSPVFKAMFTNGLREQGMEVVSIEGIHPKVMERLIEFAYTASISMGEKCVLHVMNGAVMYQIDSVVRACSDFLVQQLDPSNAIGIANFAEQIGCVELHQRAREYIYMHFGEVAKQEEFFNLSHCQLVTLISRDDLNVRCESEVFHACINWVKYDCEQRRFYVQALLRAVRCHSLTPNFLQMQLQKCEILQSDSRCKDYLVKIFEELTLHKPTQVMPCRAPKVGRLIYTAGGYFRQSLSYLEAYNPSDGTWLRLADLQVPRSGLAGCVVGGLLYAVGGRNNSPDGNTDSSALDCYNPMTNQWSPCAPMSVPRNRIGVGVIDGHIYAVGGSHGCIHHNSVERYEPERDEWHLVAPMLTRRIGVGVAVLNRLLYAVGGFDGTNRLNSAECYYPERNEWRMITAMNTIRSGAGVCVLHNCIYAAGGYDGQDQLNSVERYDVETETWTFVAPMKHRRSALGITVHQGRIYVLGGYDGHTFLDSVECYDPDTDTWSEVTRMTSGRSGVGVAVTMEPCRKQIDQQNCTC

IC50: 2.3 µM | Ki: 0.79 µM
B1: PLEC 4457-4471 peptide with an extra C-terminal Y, R4466C (sheet label R4472C) (peptide)
peptide: Ac-GIIDPSTGECFPVTDY-NH2

From paper PMC8769072, “Proteome‐scale mapping of binding sites in the unstructured regions of the human proteome” (Molecular Systems Biology, 2022)
